This is one part of the list. The list includes weakly bound sequences.
Each sequence was assayed against T1, MBP-FoxP3dN (UniProt Q99JB6) (assay: PD-seq (MBP pull-down with sequencing)). Conditions: 20 mM Tris-HCl pH 7.5, 100 mM NaCl, 1.5 mM MgCl2, 0.4 uM protein, 0.1 uM dsDNA library, 30 min, room temperature, amylose pull-down; high values mean tight binding; double strand, one strand shown.
T1 sequence: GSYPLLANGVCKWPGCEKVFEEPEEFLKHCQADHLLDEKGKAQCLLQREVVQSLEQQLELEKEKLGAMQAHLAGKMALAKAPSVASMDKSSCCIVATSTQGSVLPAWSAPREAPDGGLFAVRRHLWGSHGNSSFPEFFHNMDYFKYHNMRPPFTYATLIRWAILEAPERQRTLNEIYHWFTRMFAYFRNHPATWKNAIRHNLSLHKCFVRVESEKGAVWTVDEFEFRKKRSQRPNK

Sequence | binding signal (RPM ratio (pull-down/input))
GATGATTGTTCTCCCAGCTGATGAATTCTGATTCTCGAGTAAACAAATTTTCCTAATCTTTCTGTTCAAGCGCCATCTAC | 0.976
GATGATTGTTCTCCCAGCTGATGAATTACTTTCTTCGAGTAAACAAATTTTCCTAATCTTTCTGTTCAAGCGCCATCTAC | 0.388
GATGATTGTTCTCCCAGCTGATGAATTAGTTCGTTCGAGTAAACAAATTTTCCTAATCTTTCTGTTCAAGCGCCATCTAC | 0.685
GATGATTGTTCTCCCAGCTGATGAATTCGCTAGATCGAGTAAACAAATTTTCCTAATCTTTCTGTTCAAGCGCCATCTAC | 0.323
GATGATTGTTCTCCCAGCTGATGAATTACTTCGTTCGAGTAAACAAATTTTCCTAATCTTTCTGTTCAAGCGCCATCTAC | 0.322
GATGATTGTTCTCCCAGCTGATGAATTCGCCGAGTCGAGTAAACAAATTTTCCTAATCTTTCTGTTCAAGCGCCATCTAC | 0.196
GATGATTGTTCTCCCAGCTGATGAATTCATCCATTCGAGTAAACAAATTTTCCTAATCTTTCTGTTCAAGCGCCATCTAC | 0.411
GATGATTGTTCTCCCAGCTGATGAATTTTGATCTTCGAGTAAACAAATTTTCCTAATCTTTCTGTTCAAGCGCCATCTAC | 0.415
GATGATTGTTCTCCCAGCTGATGAATTTAACCTGTCGAGTAAACAAATTTTCCTAATCTTTCTGTTCAAGCGCCATCTAC | 0.318
GATGATTGTTCTCCCAGCTGATGAATTTCCCGCATCGAGTAAACAAATTTTCCTAATCTTTCTGTTCAAGCGCCATCTAC | 0.913
GATGATTGTTCTCCCAGCTGATGAATTATTGGCGTCGAGTAAACAAATTTTCCTAATCTTTCTGTTCAAGCGCCATCTAC | 0.837
GATGATTGTTCTCCCAGCTGATGAATTCTCCCTATCGAGTAAACAAATTTTCCTAATCTTTCTGTTCAAGCGCCATCTAC | 0.281
GATGATTGTTCTCCCAGCTGATGAATTAGTAATTTCGAGTAAACAAATTTTCCTAATCTTTCTGTTCAAGCGCCATCTAC | 0.84
GATGATTGTTCTCCCAGCTGATGAATTACGAGGTTCGAGTAAACAAATTTTCCTAATCTTTCTGTTCAAGCGCCATCTAC | 0.392
GATGATTGTTCTCCCAGCTGATGAATTGACCAGCTCGAGTAAACAAATTTTCCTAATCTTTCTGTTCAAGCGCCATCTAC | 0.22
GATGATTGTTCTCCCAGCTGATGAATTGCCAGCTTCGAGTAAACAAATTTTCCTAATCTTTCTGTTCAAGCGCCATCTAC | 0.516
GATGATTGTTCTCCCAGCTGATGAATTCGGCTTGTCGAGTAAACAAATTTTCCTAATCTTTCTGTTCAAGCGCCATCTAC | 2.89
GATGATTGTTCTCCCAGCTGATGAATTCCAGCGCTCGAGTAAACAAATTTTCCTAATCTTTCTGTTCAAGCGCCATCTAC | 0.321
GATGATTGTTCTCCCAGCTGATGAATTAAATTACTCGAGTAAACAAATTTTCCTAATCTTTCTGTTCAAGCGCCATCTAC | 1.21
GATGATTGTTCTCCCAGCTGATGAATTTCGCATCTCGAGTAAACAAATTTTCCTAATCTTTCTGTTCAAGCGCCATCTAC | 6.74

Sequence | binding signal (RPM ratio (pull-down/input))
GATGATTGTTCTCCCAGCTGATGAATTGTGCCCATCGAGTAAACAAATTTTCCTAATCTTTCTGTTCAAGCGCCATCTAC | 2.27
GATGATTGTTCTCCCAGCTGATGAATTTATTTAGTCGAGTAAACAAATTTTCCTAATCTTTCTGTTCAAGCGCCATCTAC | 5.5
GATGATTGTTCTCCCAGCTGATGAATTCACCGGCTCGAGTAAACAAATTTTCCTAATCTTTCTGTTCAAGCGCCATCTAC | 0.214
GATGATTGTTCTCCCAGCTGATGAATTACCGTAGTCGAGTAAACAAATTTTCCTAATCTTTCTGTTCAAGCGCCATCTAC | 0.374
GATGATTGTTCTCCCAGCTGATGAATTAGTTTTGTCGAGTAAACAAATTTTCCTAATCTTTCTGTTCAAGCGCCATCTAC | 4.7
GATGATTGTTCTCCCAGCTGATGAATTAATTGTGTCGAGTAAACAAATTTTCCTAATCTTTCTGTTCAAGCGCCATCTAC | 4.27
GATGATTGTTCTCCCAGCTGATGAATTAGCTGGCTCGAGTAAACAAATTTTCCTAATCTTTCTGTTCAAGCGCCATCTAC | 0.476
GATGATTGTTCTCCCAGCTGATGAATTAGGCCAATCGAGTAAACAAATTTTCCTAATCTTTCTGTTCAAGCGCCATCTAC | 0.67
GATGATTGTTCTCCCAGCTGATGAATTATACCCATCGAGTAAACAAATTTTCCTAATCTTTCTGTTCAAGCGCCATCTAC | 0.433
GATGATTGTTCTCCCAGCTGATGAATTTCATGGGTCGAGTAAACAAATTTTCCTAATCTTTCTGTTCAAGCGCCATCTAC | 0.354
GATGATTGTTCTCCCAGCTGATGAATTGTCCTTGTCGAGTAAACAAATTTTCCTAATCTTTCTGTTCAAGCGCCATCTAC | 0.388
GATGATTGTTCTCCCAGCTGATGAATTCTCTTTGTCGAGTAAACAAATTTTCCTAATCTTTCTGTTCAAGCGCCATCTAC | 0.713
GATGATTGTTCTCCCAGCTGATGAATTTGTCAGCTCGAGTAAACAAATTTTCCTAATCTTTCTGTTCAAGCGCCATCTAC | 2.09
GATGATTGTTCTCCCAGCTGATGAATTCTTCAGGTCGAGTAAACAAATTTTCCTAATCTTTCTGTTCAAGCGCCATCTAC | 0.209
GATGATTGTTCTCCCAGCTGATGAATTTCCATCCTCGAGTAAACAAATTTTCCTAATCTTTCTGTTCAAGCGCCATCTAC | 0.298
GATGATTGTTCTCCCAGCTGATGAATTGAAAAAATCGAGTAAACAAATTTTCCTAATCTTTCTGTTCAAGCGCCATCTAC | 0.17
GATGATTGTTCTCCCAGCTGATGAATTTGGGTCCTCGAGTAAACAAATTTTCCTAATCTTTCTGTTCAAGCGCCATCTAC | 0.676
GATGATTGTTCTCCCAGCTGATGAATTTGCTGCGTCGAGTAAACAAATTTTCCTAATCTTTCTGTTCAAGCGCCATCTAC | 2.23
GATGATTGTTCTCCCAGCTGATGAATTTCATGTGTCGAGTAAACAAATTTTCCTAATCTTTCTGTTCAAGCGCCATCTAC | 1.1
GATGATTGTTCTCCCAGCTGATGAATTCGCGATCTCGAGTAAACAAATTTTCCTAATCTTTCTGTTCAAGCGCCATCTAC | 0.437

Reference: PMC12820563
